Measurements reported in paper PMC9120031.
Results are given in words; binding and its absence hold for the method and conditions named. Binding seen in cells or lysates may run through a third protein. Some entries that bind do so weakly or less than the wild type. Where a sequence is shown, tags or fusion partners need not be part of it.

Amino acid sequences for entries named in this document (tags omitted). A change or cut given only in a name is not applied to a line headed by its entry.
UniProt P51150: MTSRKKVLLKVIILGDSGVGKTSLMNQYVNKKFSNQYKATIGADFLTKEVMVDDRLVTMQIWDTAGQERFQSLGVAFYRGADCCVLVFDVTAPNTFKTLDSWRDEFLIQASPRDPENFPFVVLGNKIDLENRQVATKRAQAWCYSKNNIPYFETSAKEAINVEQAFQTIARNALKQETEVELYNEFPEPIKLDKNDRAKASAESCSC

T1: Ccz1 deletion mutant 38-250 used for heterodimer formation in Supplementary Fig. S2 (mouse) (UniProt Q8C1Y8)
T1 sequence: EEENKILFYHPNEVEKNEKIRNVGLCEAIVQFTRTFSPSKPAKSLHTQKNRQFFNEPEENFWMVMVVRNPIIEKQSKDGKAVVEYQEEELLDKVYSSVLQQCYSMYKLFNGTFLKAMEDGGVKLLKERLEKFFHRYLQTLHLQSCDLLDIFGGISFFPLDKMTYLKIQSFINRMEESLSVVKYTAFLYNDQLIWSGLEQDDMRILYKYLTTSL

T2: FLAG-Ccz1 mutant of segment 1-180 (mouse) (UniProt Q8C1Y8)
T2 sequence: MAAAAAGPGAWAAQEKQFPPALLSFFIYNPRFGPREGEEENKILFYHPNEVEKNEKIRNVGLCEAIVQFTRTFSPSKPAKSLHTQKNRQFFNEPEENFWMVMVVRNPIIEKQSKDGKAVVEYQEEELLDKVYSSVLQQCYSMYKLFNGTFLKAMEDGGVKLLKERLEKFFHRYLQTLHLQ

T3: FLAG-Ccz1 mutant of segment 1-250 (mouse) (UniProt Q8C1Y8)
T3 sequence: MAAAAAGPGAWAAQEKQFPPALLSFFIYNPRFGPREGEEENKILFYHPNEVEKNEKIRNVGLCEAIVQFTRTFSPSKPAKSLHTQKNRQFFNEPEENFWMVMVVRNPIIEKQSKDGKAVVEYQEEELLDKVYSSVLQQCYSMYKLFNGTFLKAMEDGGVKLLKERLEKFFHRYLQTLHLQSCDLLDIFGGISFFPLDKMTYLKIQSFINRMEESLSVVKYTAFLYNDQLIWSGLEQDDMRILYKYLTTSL

T4: FLAG-a3N deletion mutant 214-386 (UniProt Q9JHF5)
T4 sequence: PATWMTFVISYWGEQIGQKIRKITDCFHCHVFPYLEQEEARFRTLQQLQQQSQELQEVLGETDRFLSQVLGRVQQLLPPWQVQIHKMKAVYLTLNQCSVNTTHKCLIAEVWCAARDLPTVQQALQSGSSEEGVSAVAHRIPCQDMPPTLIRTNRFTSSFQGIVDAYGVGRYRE

T5: Ccz1 used as partner of the Mon1A deletion mutants in Supplementary Fig. S2 (mouse) (UniProt Q8C1Y8)
T5 sequence: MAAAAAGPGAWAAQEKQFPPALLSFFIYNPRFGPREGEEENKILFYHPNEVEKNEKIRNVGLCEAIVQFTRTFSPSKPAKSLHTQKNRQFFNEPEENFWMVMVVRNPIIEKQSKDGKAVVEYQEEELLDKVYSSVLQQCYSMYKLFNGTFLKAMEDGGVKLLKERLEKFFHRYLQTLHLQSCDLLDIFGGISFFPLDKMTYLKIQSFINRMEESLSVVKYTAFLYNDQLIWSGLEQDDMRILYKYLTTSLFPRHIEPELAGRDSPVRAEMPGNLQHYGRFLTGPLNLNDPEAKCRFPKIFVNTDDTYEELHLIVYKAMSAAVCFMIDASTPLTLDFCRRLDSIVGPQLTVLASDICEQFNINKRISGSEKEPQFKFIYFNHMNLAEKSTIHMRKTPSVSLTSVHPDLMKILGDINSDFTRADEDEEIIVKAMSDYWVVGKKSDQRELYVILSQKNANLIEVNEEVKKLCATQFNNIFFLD


Assays:
[1] = molecular target: T1, Ccz1 deletion mutant 38-250 used for heterodimer formation in Supplementary Fig. S2 (mouse); assay: co-IP; Supplementary Fig. S2: heterodimer formation of Mon1A and Ccz1 deletion mutants; co-precipitated V5-Mon1A signals compared with 5% input; set-up not told in the text shown
[2] = molecular target: T2, FLAG-Ccz1 mutant of segment 1-180 (mouse); assay: co-IP; FLAG- and V5-tagged proteins co-expressed in HEK293T cells; lysed 48 h after transfection in IP buffer (1% Triton X-100, 10% glycerol, 50 mM Tris-HCl pH 7.4, 150 mM NaCl, 1 mM dithiothreitol, 1 mM EDTA); precipitated with anti-FLAG antibody; western blot with anti-V5 (or anti-A subunit) antibody
[3] = molecular target: T3, FLAG-Ccz1 mutant of segment 1-250 (mouse); assay: as above
[4] = molecular target: T4, FLAG-a3N deletion mutant 214-386; assay: as above
[5] = molecular target: FLAG-tagged GDP-fixed Rab7(T22N) (UniProt P51150); assay: as above
[6] = molecular target: FLAG-tagged a3C (carboxy-terminal half of a3, amino acids 387-834) (UniProt Q9JHF5); assay: as above
[7] = molecular target: T5, Ccz1 used as partner of the Mon1A deletion mutants in Supplementary Fig. S2 (mouse); assay: co-IP; Supplementary Fig. S2: heterodimer formation of Mon1A and Ccz1 deletion mutants; co-precipitated V5-Mon1A signals compared with 5% input; set-up not told in the text shown

| Binder | binding [4] | binding [5] | binding [6] | further results |
| --- | --- | --- | --- | --- |
| V5-Mon1A G166P/K167D (PD) mutant (protein, UniProt Q6PDG8 1-556) MAADMQRKRSSECPEGTLAPSNGQSVERAESPTPGLTQGTEPGAGQEGAMFVHTRSYEDLTELEDREASGDSPKECVGSPPPLATDMRQISQDFSELSTQLTGVARDLQEEMLPGSSEDWPEPQGAAGRGAATEPSQEGSTEGEEEDATEAWRLHQKHVFVLSEAPDPVYSRYGSEEALSSTMGVMVALVSFLEADKNAIRSIHADGYKVVFVRRSPLVLVAVARTRQSAQELAQELLYIYYQILSLLTGAQLSHIFQQKQNYDLRRLLSGSERITDNLLQLMARDPSFLMGAARCLPLAAAVRDTVSASLQQARARSLVFSILLAHNQLVALVRRKDQFLHPIDLHLLFNLISSSSSFREGEAWTPVCLPKFNAAGFFHAHISYLEPDTDLCLLLISTDREDFFAVSDCRRRFQERLRKRGTHLALREALRTPYYSVAQVGIPDLRHFLYKSKSSGLFTSPEIEAPYSSEEEQERLLGLYQYLHSRAHNASRPLKTIYYTGPNENLLAWVTGAFELYMCYSPLGTKASAVSAIHKLMRWIRKEEDRLFILTPLTY | – | binds | – | – |
| V5-Mon1A N262W/D264A/R266A (WAA) mutant (protein, UniProt Q6PDG8 1-556) MAADMQRKRSSECPEGTLAPSNGQSVERAESPTPGLTQGTEPGAGQEGAMFVHTRSYEDLTELEDREASGDSPKECVGSPPPLATDMRQISQDFSELSTQLTGVARDLQEEMLPGSSEDWPEPQGAAGRGAATEPSQEGSTEGEEEDATEAWRLHQKHVFVLSEAGKPVYSRYGSEEALSSTMGVMVALVSFLEADKNAIRSIHADGYKVVFVRRSPLVLVAVARTRQSAQELAQELLYIYYQILSLLTGAQLSHIFQQKQWYALARLLSGSERITDNLLQLMARDPSFLMGAARCLPLAAAVRDTVSASLQQARARSLVFSILLAHNQLVALVRRKDQFLHPIDLHLLFNLISSSSSFREGEAWTPVCLPKFNAAGFFHAHISYLEPDTDLCLLLISTDREDFFAVSDCRRRFQERLRKRGTHLALREALRTPYYSVAQVGIPDLRHFLYKSKSSGLFTSPEIEAPYSSEEEQERLLGLYQYLHSRAHNASRPLKTIYYTGPNENLLAWVTGAFELYMCYSPLGTKASAVSAIHKLMRWIRKEEDRLFILTPLTY | – | binds | – | – |
| V5-Mon1A deletion mutant 1-246 (domain or fragment, UniProt Q6PDG8 1-246) MAADMQRKRSSECPEGTLAPSNGQSVERAESPTPGLTQGTEPGAGQEGAMFVHTRSYEDLTELEDREASGDSPKECVGSPPPLATDMRQISQDFSELSTQLTGVARDLQEEMLPGSSEDWPEPQGAAGRGAATEPSQEGSTEGEEEDATEAWRLHQKHVFVLSEAGKPVYSRYGSEEALSSTMGVMVALVSFLEADKNAIRSIHADGYKVVFVRRSPLVLVAVARTRQSAQELAQELLYIYYQILS | – | – | – | binding [7]: binds |

Second part, led by results:

| binding [4] | binding [5] | binding [6] | Binder | further results |
| --- | --- | --- | --- | --- |
| binds | binds | no binding | V5-tagged Mon1A (protein, UniProt Q6PDG8 1-556) MAADMQRKRSSECPEGTLAPSNGQSVERAESPTPGLTQGTEPGAGQEGAMFVHTRSYEDLTELEDREASGDSPKECVGSPPPLATDMRQISQDFSELSTQLTGVARDLQEEMLPGSSEDWPEPQGAAGRGAATEPSQEGSTEGEEEDATEAWRLHQKHVFVLSEAGKPVYSRYGSEEALSSTMGVMVALVSFLEADKNAIRSIHADGYKVVFVRRSPLVLVAVARTRQSAQELAQELLYIYYQILSLLTGAQLSHIFQQKQNYDLRRLLSGSERITDNLLQLMARDPSFLMGAARCLPLAAAVRDTVSASLQQARARSLVFSILLAHNQLVALVRRKDQFLHPIDLHLLFNLISSSSSFREGEAWTPVCLPKFNAAGFFHAHISYLEPDTDLCLLLISTDREDFFAVSDCRRRFQERLRKRGTHLALREALRTPYYSVAQVGIPDLRHFLYKSKSSGLFTSPEIEAPYSSEEEQERLLGLYQYLHSRAHNASRPLKTIYYTGPNENLLAWVTGAFELYMCYSPLGTKASAVSAIHKLMRWIRKEEDRLFILTPLTY | binding [1]: binds; binding [2]: binds; binding [3]: binds |
| binds | – | no binding | V5-tagged Ccz1 (protein, UniProt Q8C1Y8 1-480) MAAAAAGPGAWAAQEKQFPPALLSFFIYNPRFGPREGEEENKILFYHPNEVEKNEKIRNVGLCEAIVQFTRTFSPSKPAKSLHTQKNRQFFNEPEENFWMVMVVRNPIIEKQSKDGKAVVEYQEEELLDKVYSSVLQQCYSMYKLFNGTFLKAMEDGGVKLLKERLEKFFHRYLQTLHLQSCDLLDIFGGISFFPLDKMTYLKIQSFINRMEESLSVVKYTAFLYNDQLIWSGLEQDDMRILYKYLTTSLFPRHIEPELAGRDSPVRAEMPGNLQHYGRFLTGPLNLNDPEAKCRFPKIFVNTDDTYEELHLIVYKAMSAAVCFMIDASTPLTLDFCRRLDSIVGPQLTVLASDICEQFNINKRISGSEKEPQFKFIYFNHMNLAEKSTIHMRKTPSVSLTSVHPDLMKILGDINSDFTRADEDEEIIVKAMSDYWVVGKKSDQRELYVILSQKNANLIEVNEEVKKLCATQFNNIFFLD | – |
